From EPA's CvTdb concentration-time database
Further values from the same series stand in other lists.

Key:
Experiment in all cases: concentration in plasma after dosing
[1] = test system: Rat; conditions: dosed: Perfluorohexane-1-sulphonic acid – potassium salt, 4 mg/kg, Female, F344
[2] = test system: Rat; conditions: 6 h; dosed: Perfluorohexane-1-sulphonic acid – potassium salt; 16 mg/kg; oral; Female; Harlan Sprague Dawley
[3] = test system: Rat; conditions: dosed: Perfluorohexane-1-sulphonic acid – potassium salt, 4 mg/kg, Female, F344; remark: listed apart in the source
[4] = test system: Rat
[5] = test system: Rat; conditions: dosed: Perfluorohexane-1-sulphonic acid – potassium salt, 4 mg/kg, oral, Female, F344
[6] = test system: Rat; conditions: dosed: Perfluorohexane-1-sulphonic acid – potassium salt, 32 mg/kg, oral, Male, F344
[7] = test system: Rat; conditions: 192 h; dosed: Perfluorohexane-1-sulphonic acid – potassium salt; 16 mg/kg; oral; Female; Harlan Sprague Dawley
[8] = test system: Rat; conditions: 528 h; dosed: Perfluorohexane-1-sulphonic acid – potassium salt; 16 mg/kg; oral; Female; F344
[9] = test system: Rat; conditions: dosed: Fluorotelomer alcohol 8+2, 48 mg/kg, oral, Male, Harlan Sprague Dawley
[10] = test system: Rat; conditions: 1 h; dosed: Fluorotelomer alcohol 8+2; 24 mg/kg; oral; Male; Harlan Sprague Dawley
[11] = test system: Rat; conditions: 9 h; dosed: Fluorotelomer alcohol 8+2; 80 mg/kg; oral; Female; Harlan Sprague Dawley
[12] = test system: Rat; conditions: dosed: Fluorotelomer alcohol 8+2, 24 mg/kg, oral, Male, Harlan Sprague Dawley
[13] = test system: Rat; conditions: dosed: Fluorotelomer alcohol 8+2, 48 mg/kg, oral, Male, Harlan Sprague Dawley; remark: listed apart in the source
[14] = test system: Rat; conditions: dosed: Fluorotelomer alcohol 8+2, 40 mg/kg, oral, Female, Harlan Sprague Dawley
[15] = test system: Rat; conditions: 192 h; dosed: Fluorotelomer alcohol 8+2; 80 mg/kg; oral; Female; Harlan Sprague Dawley

O=S(=O)([O-])C(F)(F)C(F)(F)C(F)(F)C(F)(F)C(F)(F)C(F)(F)F.[K+] [Perfluorohexane-1-sulphonic acid – potassium salt]
Conditions	concentration in plasma [ng/mL]
[1], 0.5 h	45600
[1], 24 h	17100
[3], 5 min	62600
[3], 6 h	27200
[3], 192 h	888
[5], 0.25 h	10100
[5], 12 h	27600
[5], 192 h	2510
[6], 3 h	141000
[6], 48 h	53100
[6], 528 h	51.9

Conditions	concentration in plasma [ng/mL]
[2]	78800
[7]	5110
[8]	37200

concentration in plasma [ng/mL], [4], dosed: Perfluorohexane-1-sulphonic acid – potassium salt, 4 mg/kg, Female
Conditions	F344	Harlan Sprague Dawley
0.25 h	40000	–
1 h	38200	33200
3 h	32400	34700
5 min	68100	61100
6 h	31000	–
12 h	25000	–
24 h	30900	–
48 h	–	9110
96 h	–	4900
192 h	15200	–
528 h	11100	–
864 h	8140	–

concentration in plasma [ng/mL], [4], dosed: Perfluorohexane-1-sulphonic acid – potassium salt, oral
Conditions	4 mg/kg	16 mg/kg	32 mg/kg
0.25 h, Female, F344	9720	–	–
0.25 h, Female, Harlan Sprague Dawley	11100	45700	57100
0.25 h, Male, F344	–	17000	–
0.25 h, Male, Harlan Sprague Dawley	–	–	66200
1 h, Female, Harlan Sprague Dawley	20000	79800	132000
1 h, Male, F344	–	61100	–
1 h, Male, Harlan Sprague Dawley	–	–	96800
3 h, Female, F344	–	123000	–
3 h, Female, Harlan Sprague Dawley	21600	90600	–
3 h, Male, F344	–	–	156000
3 h, Male, Harlan Sprague Dawley	–	–	25700
6 h, Female, F344	23600	123000	–
6 h, Female, Harlan Sprague Dawley	–	95300	123000
6 h, Male, F344	22800	–	–
6 h, Male, Harlan Sprague Dawley	–	–	191000
12 h, Female, F344	24400	136000	–
12 h, Female, Harlan Sprague Dawley	26500	89500	106000
12 h, Male, Harlan Sprague Dawley	–	–	226000
24 h, Female, F344	–	116000	–
24 h, Female, Harlan Sprague Dawley	18800	58800	67800
24 h, Male, Harlan Sprague Dawley	–	–	180000
48 h, Female, Harlan Sprague Dawley	10900	39500	–
48 h, Male, F344	–	–	51500
96 h, Female, F344	9390	–	–
96 h, Female, Harlan Sprague Dawley	–	21400	24100
96 h, Male, F344	8540	–	–
192 h, Female, F344	3260	70400	–
192 h, Female, Harlan Sprague Dawley	3580	4950	2090
192 h, Male, Harlan Sprague Dawley	–	–	91100
288 h, Female, Harlan Sprague Dawley	576	963	821
528 h, Female, F344	–	39400	–
528 h, Female, Harlan Sprague Dawley	–	194	–
528 h, Male, F344	–	–	40.7
528 h, Male, Harlan Sprague Dawley	–	–	64400
864 h, Male, F344	–	12400	–
864 h, Male, Harlan Sprague Dawley	–	–	23800
1200 h, Male, Harlan Sprague Dawley	–	20800	19600

O=C(O)CCC(F)(F)C(F)(F)C(F)(F)C(F)(F)C(F)(F)C(F)(F)C(F)(F)F [Fluorotelomer acid 7+3]
Conditions	concentration in plasma [ng/mL]
[9], 1 h	631
[9], 24 h	311
[12], 0.25 h	40.8
[12], 24 h	709
[13], 0.75 h	615
[13], 12 h	782
[14], 0.5 h	287
[14], 9 h	1690

Conditions	concentration in plasma [ng/mL]
[10]	712
[11]	3080
[15]	388

concentration in plasma [ng/mL], [4], oral
Conditions	Harlan Sprague Dawley	Harlan Sprague Dawley - this seems too small
0.25 h, dosed: Fluorotelomer alcohol 8+2, 24 mg/kg, Male	20.1	–
0.25 h, dosed: Fluorotelomer alcohol 8+2, 40 mg/kg, Female	53.3	–
0.25 h, dosed: Fluorotelomer alcohol 8+2, 48 mg/kg, Male	45.2	–
0.25 h, dosed: Fluorotelomer alcohol 8+2, 80 mg/kg, Female	76.5	–
0.25 h, dosed: Fluorotelomer alcohol 8+2, 160 mg/kg, Female	79.2	–
0.5 h, dosed: Fluorotelomer alcohol 8+2, 24 mg/kg, Male	267	137
0.5 h, dosed: Fluorotelomer alcohol 8+2, 40 mg/kg, Female	495	–
0.5 h, dosed: Fluorotelomer alcohol 8+2, 48 mg/kg, Male	301	–
0.5 h, dosed: Fluorotelomer alcohol 8+2, 80 mg/kg, Female	650	–
0.5 h, dosed: Fluorotelomer alcohol 8+2, 160 mg/kg, Female	524	–
0.75 h, dosed: Fluorotelomer alcohol 8+2, 24 mg/kg, Male	476	–
0.75 h, dosed: Fluorotelomer alcohol 8+2, 40 mg/kg, Female	1030	–
0.75 h, dosed: Fluorotelomer alcohol 8+2, 48 mg/kg, Male	655	–
0.75 h, dosed: Fluorotelomer alcohol 8+2, 80 mg/kg, Female	1330	–
0.75 h, dosed: Fluorotelomer alcohol 8+2, 160 mg/kg, Female	857	–
1 h, dosed: Fluorotelomer alcohol 8+2, 24 mg/kg, Male	503	–
1 h, dosed: Fluorotelomer alcohol 8+2, 40 mg/kg, Female	1310	–
1 h, dosed: Fluorotelomer alcohol 8+2, 48 mg/kg, Male	959	–
1 h, dosed: Fluorotelomer alcohol 8+2, 80 mg/kg, Female	1530	–
1 h, dosed: Fluorotelomer alcohol 8+2, 160 mg/kg, Female	3450	–
3 h, dosed: Fluorotelomer alcohol 8+2, 24 mg/kg, Male	1670	–
3 h, dosed: Fluorotelomer alcohol 8+2, 40 mg/kg, Female	3140	–
3 h, dosed: Fluorotelomer alcohol 8+2, 48 mg/kg, Male	1440	–
3 h, dosed: Fluorotelomer alcohol 8+2, 80 mg/kg, Female	4220	–
3 h, dosed: Fluorotelomer alcohol 8+2, 160 mg/kg, Female	8960	–
5 min, dosed: Fluorotelomer alcohol 8+2, 24 mg/kg, Male	0.717	–
5 min, dosed: Fluorotelomer alcohol 8+2, 48 mg/kg, Male	1.09	–
6 h, dosed: Fluorotelomer alcohol 8+2, 24 mg/kg, Male	1130	–
6 h, dosed: Fluorotelomer alcohol 8+2, 40 mg/kg, Female	2650	–
6 h, dosed: Fluorotelomer alcohol 8+2, 48 mg/kg, Male	3100	–
6 h, dosed: Fluorotelomer alcohol 8+2, 80 mg/kg, Female	5470	–
6 h, dosed: Fluorotelomer alcohol 8+2, 160 mg/kg, Female	8210	–
9 h, dosed: Fluorotelomer alcohol 8+2, 24 mg/kg, Male	820	–
9 h, dosed: Fluorotelomer alcohol 8+2, 40 mg/kg, Female	1830	–
9 h, dosed: Fluorotelomer alcohol 8+2, 48 mg/kg, Male	495	–
9 h, dosed: Fluorotelomer alcohol 8+2, 80 mg/kg, Female	3540	–
9 h, dosed: Fluorotelomer alcohol 8+2, 160 mg/kg, Female	1620	–
12 h, dosed: Fluorotelomer alcohol 8+2, 24 mg/kg, Male	792	–
12 h, dosed: Fluorotelomer alcohol 8+2, 40 mg/kg, Female	1500	–
12 h, dosed: Fluorotelomer alcohol 8+2, 48 mg/kg, Male	853	–
12 h, dosed: Fluorotelomer alcohol 8+2, 80 mg/kg, Female	2430	–
12 h, dosed: Fluorotelomer alcohol 8+2, 160 mg/kg, Female	1010	–
24 h, dosed: Fluorotelomer alcohol 8+2, 24 mg/kg, Male	451	–
24 h, dosed: Fluorotelomer alcohol 8+2, 40 mg/kg, Female	1010	–
24 h, dosed: Fluorotelomer alcohol 8+2, 48 mg/kg, Male	561	–
24 h, dosed: Fluorotelomer alcohol 8+2, 80 mg/kg, Female	1590	–
24 h, dosed: Fluorotelomer alcohol 8+2, 160 mg/kg, Female	2580	–
48 h, dosed: Fluorotelomer alcohol 8+2, 24 mg/kg, Male	278	–
48 h, dosed: Fluorotelomer alcohol 8+2, 40 mg/kg, Female	183	–
48 h, dosed: Fluorotelomer alcohol 8+2, 48 mg/kg, Male	468	–
48 h, dosed: Fluorotelomer alcohol 8+2, 80 mg/kg, Female	1050	–
48 h, dosed: Fluorotelomer alcohol 8+2, 160 mg/kg, Female	2330	–
192 h, dosed: Fluorotelomer alcohol 8+2, 40 mg/kg, Female	99.7	–
192 h, dosed: Fluorotelomer alcohol 8+2, 48 mg/kg, Male	73.9	–
192 h, dosed: Fluorotelomer alcohol 8+2, 80 mg/kg, Female	346	–
192 h, dosed: Fluorotelomer alcohol 8+2, 160 mg/kg, Female	82	–
